# Data taken from the supplement of paper PMC8728848.
# The other results are listed elsewhere or left out.
# B1: a L Fucosidase (Streptosporangium roseum), D2B1P1_STRRD (protein)
# chain: MRRKLLLVPAVGLLVIGSIFATQPVASADTPPVYEPTVESLNSHPVPQWFNDDKFGIFIHWGAYSVPAWGPRGSYAEWYGNYMNAGGSATNAHHKATYGQDFNYDAFLQQWKAEKFDPADWVKLFKDAGAKYFVLTSKHHEGMALWDSKSSGRDSVDLGPGRDLAKELFDAARKDEAKLKAGFYYSLYEWYNPAYTGRPATNPYTGAEIPYTGAPGGGDYVKDYMLPQMRELIDGYDPDIIWCDGQWEKPASYWNTAGVIADYYNKALNSGKEVAVANRCKIQSGNLDSPELDFQTPEYTVKPDIDPVKWESSRGIAHSYGYNQNEPEEDHLTSDQLVDSLVDIVSKNGNLLLDIGPKADGTIPEIQRQRLLDIGAWLKANGEAIYGTTYWNRAEEKGGPDDVRYTAKDATLYATALKWPGEQLTLGADLPVDHSTRITMLGSGARLSWSRDEQGRVVVNTPQEAGKHAYVFKIETPGVRSLLRTSSSLAKEIAPGRTISGELTVTNPGKRHTPATKLSLTVPQGWTATLGAPRVRPLGPGESVKVPISVSAPEGVAPAPYTLGLYQRTGRMGTTTALPLTVNRPNLSLGKPATQKSTGYDAPASRAVDGNTGGDWSAGSTTHTAEPEKQAWWQVDLGASARLDSVDVWNRLDCCADRLKDFWVMASDQPFTTDDLDQARTAPGVTAVHVGEQAGSPSKVKLPEGTRGRYVRIQLASPSNPLSLAEVQVRGSMARPNLSLGKPATQKSTGYDAPASRAVDGNTGGDWSAGSTTHTAEPEKQAWWQVDLGASARLDSVDVWNRLDCCADRLKDFWVMASDQPFTTDDLDQARTAPGVTAVHVGEQAGSPSKVKLPEGTRGRYVRIQLASPSNPLSLAEVQVRLEHHHHHHS
# Assays:
# Experiment in all cases: glycan array binding signal (z-score within array); higher = stronger binding
# Settings in all cases: glycan notation: IUPAC condensed, linker removed
# [1] = molecular target: GlcNAc(b1-3)Gal(b1-4)GlcNAc(b1-3)Gal(b1-4)GlcNAc(b1-3)Gal(b1-4)GlcNAc(b1-3)Gal(b1-4)GlcNAc(b1-2)[GlcNAc(b1-3)Gal(b1-4)GlcNAc(b1-3)Gal(b1-4)GlcNAc(b1-3)Gal(b1-4)GlcNAc(b1-3)Gal(b1-4)GlcNAc(b1-6)]Man(a1-6)[GlcNAc(b1-3)Gal(b1-4)GlcNAc(b1-3)Gal(b1-4)GlcNAc(b1-3)Gal(b1-4)GlcNAc(b1-3)Gal(b1-4)GlcNAc(b1-2)Man(a1-3)]Man(b1-4)GlcNAc(b1-4)[Fuc(a1-6)]GlcNAc
# Summary of the method: (§1)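 The Consortium for Functional Glycomics database supplied 3228 glycan arrays, of which those lacking an available protein sequence were dropped. The binding signal, a within-array Z-score, was averaged across arrays of the same protein sequence and across linkers. Negative scores can be read as non-binding.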
# [2] = molecular target: GlcNAc(b1-3)Gal(b1-4)GlcNAc(b1-3)Gal(b1-4)GlcNAc(b1-3)GalNAc
# Summary of the method: as §1
# [3] = molecular target: GlcNAc(b1-3)Gal(b1-4)GlcNAc(b1-3)GalNAc
# Summary of the method: as §1
# [4] = molecular target: GlcNAc(b1-3)Gal(b1-4)GlcNAc(b1-3)[GlcNAc(b1-3)Gal(b1-4)GlcNAc(b1-3)]GalNAc
# Summary of the method: as §1
# [5] = molecular target: GlcNAc(b1-3)Gal(b1-4)GlcNAc(b1-6)[Gal(b1-3)]GalNAc
# Summary of the method: as §1
# [6] = molecular target: GlcNAc(b1-3)Gal(b1-4)GlcNAc(b1-6)[GlcNAc(b1-3)Gal(b1-3)]GalNAc
# Summary of the method: as §1
# [7] = molecular target: GlcNAc(b1-3)Gal(b1-4)GlcNAc(b1-6)[GlcNAc(b1-3)]Gal(b1-4)GlcNAc
# Summary of the method: as §1
# GlcNAc(b1-3)GalNAc = molecular target: GlcNAc(b1-3)GalNAc
# Summary of the method: as §1
# GlcNAc(b1-3)Man = molecular target: GlcNAc(b1-3)Man
# Summary of the method: as §1
# [8] = molecular target: GlcNAc(b1-3)[GlcNAc(b1-4)][GlcNAc(b1-6)]GlcNAc
# Summary of the method: as §1
# [9] = molecular target: GlcNAc(b1-3)[GlcNAc(b1-6)]Gal(b1-4)GlcNAc
# Summary of the method: as §1
# [10] = molecular target: GlcNAc(b1-3)[GlcNAc(b1-6)]GalNAc
# Summary of the method: as §1
# [11] = molecular target: GlcNAc(b1-4)Gal(b1-4)GlcNAc
# Summary of the method: as §1
# GlcNAc(b1-4)GlcNAc = molecular target: GlcNAc(b1-4)GlcNAc
# Summary of the method: as §1
# [12] = molecular target: GlcNAc(b1-4)GlcNAc(b1-4)GlcNAc
# Summary of the method: as §1
# [13] = molecular target: GlcNAc(b1-4)GlcNAc(b1-4)GlcNAc(b1-4)GlcNAc(b1-4)GlcNAc
# Summary of the method: as §1
# [14] = molecular target: GlcNAc(b1-4)GlcNAc(b1-4)GlcNAc(b1-4)GlcNAc(b1-4)GlcNAc(b1-4)GlcNAc
# Summary of the method: as §1
# [15] = molecular target: GlcNAc(b1-4)[GlcNAc(b1-6)]GalNAc
# Summary of the method: as §1
# [16] = molecular target: GlcNAc(b1-6)Gal(b1-4)GlcNAc
# Summary of the method: as §1
# GlcNAc(b1-6)GalNAc = molecular target: GlcNAc(b1-6)GalNAc
# Summary of the method: as §1
# [17] = molecular target: GlcNAc6S(b1-3)Gal(b1-4)GlcNAc
# Summary of the method: as §1
# Kdn(a2-3)Gal(b1-3)GalNAc = molecular target: Kdn(a2-3)Gal(b1-3)GalNAc
# Summary of the method: as §1
# Kdn(a2-3)Gal(b1-3)GlcNAc = molecular target: Kdn(a2-3)Gal(b1-3)GlcNAc
# Summary of the method: as §1
# Kdn(a2-3)Gal(b1-4)Glc = molecular target: Kdn(a2-3)Gal(b1-4)Glc
# Summary of the method: as §1
# Kdn(a2-3)Gal(b1-4)GlcNAc = molecular target: Kdn(a2-3)Gal(b1-4)GlcNAc
# Summary of the method: as §1
# [18] = molecular target: Kdn(a2-3)Gal(b1-4)[Fuc(a1-3)]GlcNAc
# Summary of the method: as §1
# Kdn(a2-6)Gal(b1-4)GlcNAc = molecular target: Kdn(a2-6)Gal(b1-4)GlcNAc
# Summary of the method: as §1
# [19] = molecular target: Man(a1-2)Man(a1-2)Man(a1-3)Man
# Summary of the method: as §1
# [20] = molecular target: Man(a1-2)Man(a1-2)Man(a1-6)[Man(a1-3)]Man
# Summary of the method: as §1
# Man(a1-2)Man(a1-3)Man = molecular target: Man(a1-2)Man(a1-3)Man
# Summary of the method: as §1
binder,measurement,setting,value
B1,glycan array binding signal (z-score),[1],-0.477
same,glycan array binding signal (z-score),[2],-0.561
same,glycan array binding signal (z-score),[3],-0.447
same,glycan array binding signal (z-score),[4],-0.509
same,glycan array binding signal (z-score),[5],-0.564
same,glycan array binding signal (z-score),[6],0.314
same,glycan array binding signal (z-score),[7],-0.195
same,glycan array binding signal (z-score),GlcNAc(b1-3)GalNAc,-0.567
same,glycan array binding signal (z-score),GlcNAc(b1-3)Man,-0.086
same,glycan array binding signal (z-score),[8],-0.599
same,glycan array binding signal (z-score),[9],-0.608
same,glycan array binding signal (z-score),[10],-0.291
same,glycan array binding signal (z-score),[11],-0.774
same,glycan array binding signal (z-score),GlcNAc(b1-4)GlcNAc,-0.445
same,glycan array binding signal (z-score),[12],-0.537
same,glycan array binding signal (z-score),[13],-0.566
same,glycan array binding signal (z-score),[14],-0.148
same,glycan array binding signal (z-score),[15],-0.637
same,glycan array binding signal (z-score),[16],-0.461
same,glycan array binding signal (z-score),GlcNAc(b1-6)GalNAc,-0.474
same,glycan array binding signal (z-score),[17],-0.43
same,glycan array binding signal (z-score),Kdn(a2-3)Gal(b1-3)GalNAc,0.474
same,glycan array binding signal (z-score),Kdn(a2-3)Gal(b1-3)GlcNAc,-0.54
same,glycan array binding signal (z-score),Kdn(a2-3)Gal(b1-4)Glc,-0.16
same,glycan array binding signal (z-score),Kdn(a2-3)Gal(b1-4)GlcNAc,-0.555
same,glycan array binding signal (z-score),[18],-0.017
same,glycan array binding signal (z-score),Kdn(a2-6)Gal(b1-4)GlcNAc,-0.127
same,glycan array binding signal (z-score),[19],-0.582
same,glycan array binding signal (z-score),[20],-0.247
same,glycan array binding signal (z-score),Man(a1-2)Man(a1-3)Man,-0.556
